Measurements published in the supplement of paper PMC11125491.
± gives the standard deviation of the averaged measurements. Growth of baker's yeast expressing single-residue variants of Pneumocystis jirovecii dihydrofolate reductase in 8.8 or 44 µM methotrexate (about 75% and 90% inhibition of the wild type). Selection coefficient per generation; 0 = like wild type, above 0 = less sensitive, below 0 = more sensitive or loss of function. No active / inactive call per row; the paper calls resistant above 0.220 (8.8 µM) or 0.243 (44 µM) together with a significance test. At 44 µM about 15% of codons end with one read or none, so the lowest values are floors (replicate rank correlation 0.74; 0.94 at 8.8 µM).

B1: UniProt A0EPZ9; numbered along this chain (parent)
chain: MDWQKSLTLIVALTLSRGIGLKNDLPWKLKSDMMFFSRVTSGLLVTRSTGQMNVVLMGRKTWESLPAHSRPLKNRINVVISRQEVLDLGGGAYHARSLDDALALLSQIYDSTSKIQLNRVFVIGGGELCKAAMEHSRLNRIIATVIHNEVDCDVFFPIDFRSSQSCLPWRKQDHSVLEAWVGSKVPQGKINENGFIYEFEMWIRDI

Variants of: B1
Assay: selection coefficient against synonymous wild-type codons (log2 per generation); higher = faster growth than wild type
Details: with Saccharomyces cerevisiae carrying the variant on a plasmid
Method: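 Pooled growth of yeast carrying single-residue variants of P. jirovecii dihydrofolate reductase (own DFR1 gene intact), two passages at 30 °C, three cultures, sequenced before and after. Codons with under 15 starting reads are left out; codons of one change are averaged.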

Variant | selection coefficient against synonymous wild-type codons (log2) (methotrexate 8.8 µM) | selection coefficient against synonymous wild-type codons (log2) (methotrexate 44 µM)
MDWQKSLTLIVALTLSRGIGLKNDLPWKLKSDMMFFSRVTSGLLVTRSTGQMNVVLMGRKTWESLPAHSRPLKNRINVVISRQEVLDLGGGAYHARSLDDALALLSQIYDSTSKIQLNRVFVIGGGELCKAAMEHSRLNRIIATVIHNEVDCDVFFPIDFRSSQSCLPWRKQDHSVLEAWVGSKVPQGKISENGFIYEFEMWIRDI [N191S] | 0.0493 ± 0.16 | 0.0855 ± 0.31
MDWQKSLTLIVALTLSRGIGLKNDLPWKLKSDMMFFSRVTSGLLVTRSTGQMNVVLMGRKTWESLPAHSRPLKNRINVVISRQEVLDLGGGAYHARSLDDALALLSQIYDSTSKIQLNRVFVIGGGELCKAAMEHSRLNRIIATVIHNEVDCDVFFPIDFRSSQSCLPWRKQDHSVLEAWVGSKVPQGKITENGFIYEFEMWIRDI [N191T] | -0.0751 ± 0.049 | -0.17 ± 0.18
MDWQKSLTLIVALTLSRGIGLKNDLPWKLKSDMMFFSRVTSGLLVTRSTGQMNVVLMGRKTWESLPAHSRPLKNRINVVISRQEVLDLGGGAYHARSLDDALALLSQIYDSTSKIQLNRVFVIGGGELCKAAMEHSRLNRIIATVIHNEVDCDVFFPIDFRSSQSCLPWRKQDHSVLEAWVGSKVPQGKIYENGFIYEFEMWIRDI [N191Y] | -0.108 ± 0.043 | -0.0252 ± 0.01
MDWQKSLTLIVALTLSRGIGLKNDLPWKLKSDMMFFSRVTSGLLVTRSTGQMNVVLMGRKTWESLPAHSRPLKNRINVVISRQEVLDLGGGAYHARSLDDALALLSQIYDSTSKIQLNRVFVIGGGELCKAAMEHSRLNRIIATVIHNEVDCDVFFPIDFRSSQSCLPWRKQDHSVLEAWVGSKVPQGKIKENGFIYEFEMWIRDI [N191K] | 0.0249 ± 0.053 | -0.0221 ± 0.051
MDWQKSLTLIVALTLSRGIGLKNDLPWKLKSDMMFFSRVTSGLLVTRSTGQMNVVLMGRKTWESLPAHSRPLKNRINVVISRQEVLDLGGGAYHARSLDDALALLSQIYDSTSKIQLNRVFVIGGGELCKAAMEHSRLNRIIATVIHNEVDCDVFFPIDFRSSQSCLPWRKQDHSVLEAWVGSKVPQGKIIENGFIYEFEMWIRDI [N191I] | -0.0913 ± 0.038 | -0.000751 ± 0.14
MDWQKSLTLIVALTLSRGIGLKNDLPWKLKSDMMFFSRVTSGLLVTRSTGQMNVVLMGRKTWESLPAHSRPLKNRINVVISRQEVLDLGGGAYHARSLDDALALLSQIYDSTSKIQLNRVFVIGGGELCKAAMEHSRLNRIIATVIHNEVDCDVFFPIDFRSSQSCLPWRKQDHSVLEAWVGSKVPQGKIRENGFIYEFEMWIRDI [N191R] | -0.0369 ± 0.067 | -0.143 ± 0.12
MDWQKSLTLIVALTLSRGIGLKNDLPWKLKSDMMFFSRVTSGLLVTRSTGQMNVVLMGRKTWESLPAHSRPLKNRINVVISRQEVLDLGGGAYHARSLDDALALLSQIYDSTSKIQLNRVFVIGGGELCKAAMEHSRLNRIIATVIHNEVDCDVFFPIDFRSSQSCLPWRKQDHSVLEAWVGSKVPQGKIPENGFIYEFEMWIRDI [N191P] | -0.195 ± 0.071 | -0.248 ± 0.14
MDWQKSLTLIVALTLSRGIGLKNDLPWKLKSDMMFFSRVTSGLLVTRSTGQMNVVLMGRKTWESLPAHSRPLKNRINVVISRQEVLDLGGGAYHARSLDDALALLSQIYDSTSKIQLNRVFVIGGGELCKAAMEHSRLNRIIATVIHNEVDCDVFFPIDFRSSQSCLPWRKQDHSVLEAWVGSKVPQGKIWENGFIYEFEMWIRDI [N191W] | -0.352 ± 0.081 | -0.287 ± 0.13
MDWQKSLTLIVALTLSRGIGLKNDLPWKLKSDMMFFSRVTSGLLVTRSTGQMNVVLMGRKTWESLPAHSRPLKNRINVVISRQEVLDLGGGAYHARSLDDALALLSQIYDSTSKIQLNRVFVIGGGELCKAAMEHSRLNRIIATVIHNEVDCDVFFPIDFRSSQSCLPWRKQDHSVLEAWVGSKVPQGKILENGFIYEFEMWIRDI [N191L] | -0.117 ± 0.14 | 0.124 ± 0.41
MDWQKSLTLIVALTLSRGIGLKNDLPWKLKSDMMFFSRVTSGLLVTRSTGQMNVVLMGRKTWESLPAHSRPLKNRINVVISRQEVLDLGGGAYHARSLDDALALLSQIYDSTSKIQLNRVFVIGGGELCKAAMEHSRLNRIIATVIHNEVDCDVFFPIDFRSSQSCLPWRKQDHSVLEAWVGSKVPQGKIQENGFIYEFEMWIRDI [N191Q] | -0.02 ± 0.019 | -0.144 ± 0.09
MDWQKSLTLIVALTLSRGIGLKNDLPWKLKSDMMFFSRVTSGLLVTRSTGQMNVVLMGRKTWESLPAHSRPLKNRINVVISRQEVLDLGGGAYHARSLDDALALLSQIYDSTSKIQLNRVFVIGGGELCKAAMEHSRLNRIIATVIHNEVDCDVFFPIDFRSSQSCLPWRKQDHSVLEAWVGSKVPQGKIHENGFIYEFEMWIRDI [N191H] | -0.0624 ± 0.18 | -0.0246 ± 0.2
MDWQKSLTLIVALTLSRGIGLKNDLPWKLKSDMMFFSRVTSGLLVTRSTGQMNVVLMGRKTWESLPAHSRPLKNRINVVISRQEVLDLGGGAYHARSLDDALALLSQIYDSTSKIQLNRVFVIGGGELCKAAMEHSRLNRIIATVIHNEVDCDVFFPIDFRSSQSCLPWRKQDHSVLEAWVGSKVPQGKIVENGFIYEFEMWIRDI [N191V] | -0.0496 ± 0.05 | -0.118 ± 0.071
MDWQKSLTLIVALTLSRGIGLKNDLPWKLKSDMMFFSRVTSGLLVTRSTGQMNVVLMGRKTWESLPAHSRPLKNRINVVISRQEVLDLGGGAYHARSLDDALALLSQIYDSTSKIQLNRVFVIGGGELCKAAMEHSRLNRIIATVIHNEVDCDVFFPIDFRSSQSCLPWRKQDHSVLEAWVGSKVPQGKIMENGFIYEFEMWIRDI [N191M] | -0.11 ± 0.057 | -0.17 ± 0.02
MDWQKSLTLIVALTLSRGIGLKNDLPWKLKSDMMFFSRVTSGLLVTRSTGQMNVVLMGRKTWESLPAHSRPLKNRINVVISRQEVLDLGGGAYHARSLDDALALLSQIYDSTSKIQLNRVFVIGGGELCKAAMEHSRLNRIIATVIHNEVDCDVFFPIDFRSSQSCLPWRKQDHSVLEAWVGSKVPQGKINANGFIYEFEMWIRDI [E192A] | 0.065 ± 0.057 | 0.0304 ± 0.065
MDWQKSLTLIVALTLSRGIGLKNDLPWKLKSDMMFFSRVTSGLLVTRSTGQMNVVLMGRKTWESLPAHSRPLKNRINVVISRQEVLDLGGGAYHARSLDDALALLSQIYDSTSKIQLNRVFVIGGGELCKAAMEHSRLNRIIATVIHNEVDCDVFFPIDFRSSQSCLPWRKQDHSVLEAWVGSKVPQGKINCNGFIYEFEMWIRDI [E192C] | 0.0413 ± 0.038 | 0.0149 ± 0.053
